Test results reported in the supplement of paper PMC12423691.
The list shows a part of the results. Binding of human transcription factors and regulators to the viral nucleoprotein by AlphaScreen, crude cell-free proteins, amounts not normalised, one pass. Fold of the Venus control; higher = more signal. No active / inactive call. Single-pass screen; sequences are the whole Swiss-Prot entries looked up by name.

B1: BARX2, Q9UMQ3 (protein)
chain: MHCHAELRLSSPGQLKAARRRYKTFMIDEILSKETCDYFEKLSLYSVCPSLVVRPKPLHSCTGSPSLRAYPLLSVITRQPTVISHLVPATPGIAQALSCHQVTEAVSAEAPGGEALASSESETEQPTPRQKKPRRSRTIFTELQLMGLEKKFQKQKYLSTPDRLDLAQSLGLTQLQVKTWYQNRRMKWKKMVLKGGQEAPTKPKGRPKKNSIPTSEEIEAEEKMNSQAQGQEQLEPSQGQEELCEAQEPKARDVPLEMAEPPDPPQELPIPSSEPPPLS
B2: ZFP36L2, P47974 (protein)
chain: MSTTLLSAFYDVDFLCKTEKSLANLNLNNMLDKKAVGTPVAAAPSSGFAPGFLRRHSASNLHALAHPAPSPGSCSPKFPGAANGSSCGSAAAGGPTSYGTLKEPSGGGGTALLNKENKFRDRSFSENGDRSQHLLHLQQQQKGGGGSQINSTRYKTELCRPFEESGTCKYGEKCQFAHGFHELRSLTRHPKYKTELCRTFHTIGFCPYGPRCHFIHNADERRPAPSGGASGDLRAFGTRDALHLGFPREPRPKLHHSLSFSGFPSGHHQPPGGLESPLLLDSPTSRTPPPPSCSSASSCSSSASSCSSASAASTPSGAPTCCASAAAAAAAALLYGTGGAEDLLAPGAPCAACSSASCANNAFAFGPELSSLITPLAIQTHNFAAVAAAAYYRSQQQQQQQGLAPPAQPPAPPSATLPAGAAAPPSPPFSFQLPRRLSDSPVFDAPPSPPDSLSDRDSYLSGSLSSGSLSGSESPSLDPGRRLPIFSRLSISDD
B3: TFAM, Q00059 (protein)
chain: MAFLRSMWGVLSALGRSGAELCTGCGSRLRSPFSFVYLPRWFSSVLASCPKKPVSSYLRFSKEQLPIFKAQNPDAKTTELIRRIAQRWRELPDSKKKIYQDAYRAEWQVYKEEISRFKEQLTPSQIMSLEKEIMDKHLKRKAMTKKKELTLLGKPKRPRSAYNVYVAERFQEAKGDSPQEKLKTVKENWKNLSDSEKELYIQHAKEDETRYHNEMKSWEEQMIEVGRKDLLRRTIKKQRKYGAEEC
B4: STAG1, Q8WVM7 (protein)
chain: MITSELPVLQDSTNETTAHSDAGSELEETEVKGKRKRGRPGRPPSTNKKPRKSPGEKSRIEAGIRGAGRGRANGHPQQNGEGEPVTLFEVVKLGKSAMQSVVDDWIESYKQDRDIALLDLINFFIQCSGCRGTVRIEMFRNMQNAEIIRKMTEEFDEDSGDYPLTMPGPQWKKFRSNFCEFIGVLIRQCQYSIIYDEYMMDTVISLLTGLSDSQVRAFRHTSTLAAMKLMTALVNVALNLSIHQDNTQRQYEAERNKMIGKRANERLELLLQKRKELQENQDEIENMMNSIFKGIFVHRYRDAIAEIRAICIEEIGVWMKMYSDAFLNDSYLKYVGWTLHDRQGEVRLKCLKALQSLYTNRELFPKLELFTNRFKDRIVSMTLDKEYDVAVEAIRLVTLILHGSEEALSNEDCENVYHLVYSAHRPVAVAAGEFLHKKLFSRHDPQAEEALAKRRGRNSPNGNLIRMLVLFFLESELHEHAAYLVDSLWESSQELLKDWECMTELLLEEPVQGEEAMSDRQESALIELMVCTIRQAAEAHPPVGRGTGKRVLTAKERKTQIDDRNKLTEHFIITLPMLLSKYSADAEKVANLLQIPQYFDLEIYSTGRMEKHLDALLKQIKFVVEKHVESDVLEACSKTYSILCSEEYTIQNRVDIARSQLIDEFVDRFNHSVEDLLQEGEEADDDDIYNVLSTLKRLTSFHNAHDLTKWDLFGNCYRLLKTGIEHGAMPEQIVVQALQCSHYSILWQLVKITDGSPSKEDLLVLRKTVKSFLAVCQQCLSNVNTPVKEQAFMLLCDLLMIFSHQLMTGGREGLQPLVFNPDTGLQSELLSFVMDHVFIDQDEENQSMEGDEEDEANKIEALHKRRNLLAAFSKLIIYDIVDMHAAADIFKHYMKYYNDYGDIIKETLSKTRQIDKIQCAKTLILSLQQLFNELVQEQGPNLDRTSAHVSGIKELARRFALTFGLDQIKTREAVATLHKDGIEFAFKYQNQKGQEYPPPNLAFLEVLSEFSSKLLRQDKKTVHSYLEKFLTEQMMERREDVWLPLISYRNSLVTGGEDDRMSVNSGSSSSKTSSVRNKKGRPPLHKKRVEDESLDNTWLNRTDTMIQTPGPLPAPQLTSTVLRENSRPMGDQIQEPESEHGSEPDFLHNPQMQISWLGQPKLEDLNRKDRTGMNYMKVRTGVRHAVRGLMEEDAEPIFEDVMMSSRSQLEDMNEEFEDTMVIDLPPSRNRRERAELRPDFFDSAAIIEDDSGFGMPMF
B5: JUNB, P17275 (protein)
chain: MCTKMEQPFYHDDSYTATGYGRAPGGLSLHDYKLLKPSLAVNLADPYRSLKAPGARGPGPEGGGGGSYFSGQGSDTGASLKLASSELERLIVPNSNGVITTTPTPPGQYFYPRGGGSGGGAGGAGGGVTEEQEGFADGFVKALDDLHKMNHVTPPNVSLGATGGPPAGPGGVYAGPEPPPVYTNLSSYSPASASSGGAGAAVGTGSSYPTTTISYLPHAPPFAGGHPAQLGLGRGASTFKEEPQTVPEARSRDATPPVSPINMEDQERIKVERKRLRNRLAATKCRKRKLERIARLEDKVKTLKAENAGLSSTAGLLREQVAQLKQKVMTHVSNGCQLLLGVKGHAF
B6: TAF5, Q15542 (protein)
chain: MAALAEEQTEVAVKLEPEGPPTLLPPQAGDGAGEGSGGTTNNGPNGGGGNVAASSSTGGDGGTPKPTVAVSAAAPAGAAPVPAAAPDAGAPHDRQTLLAVLQFLRQSKLREAEEALRREAGLLEEAVAGSGAPGEVDSAGAEVTSALLSRVTASAPGPAAPDPPGTGASGATVVSGSASGPAAPGKVGSVAVEDQPDVSAVLSAYNQQGDPTMYEEYYSGLKHFIECSLDCHRAELSQLFYPLFVHMYLELVYNQHENEAKSFFEKFHGDQECYYQDDLRVLSSLTKKEHMKGNETMLDFRTSKFVLRISRDSYQLLKRHLQEKQNNQIWNIVQEHLYIDIFDGMPRSKQQIDAMVGSLAGEAKREANKSKVFFGLLKEPEIEVPLDDEDEEGENEEGKPKKKKPKKDSIGSKSKKQDPNAPPQNRIPLPELKDSDKLDKIMNMKETTKRVRLGPDCLPSICFYTFLNAYQGLTAVDVTDDSSLIAGGFADSTVRVWSVTPKKLRSVKQASDLSLIDKESDDVLERIMDEKTASELKILYGHSGPVYGASFSPDRNYLLSSSEDGTVRLWSLQTFTCLVGYKGHNYPVWDTQFSPYGYYFVSGGHDRVARLWATDHYQPLRIFAGHLADVNCTRFHPNSNYVATGSADRTVRLWDVLNGNCVRIFTGHKGPIHSLTFSPNGRFLATGATDGRVLLWDIGHGLMVGELKGHTDTVCSLRFSRDGEILASGSMDNTVRLWDAIKAFEDLETDDFTTATGHINLPENSQELLLGTYMTKSTPVVHLHFTRRNLVLAAGAYSPQ
B7: LMX1B, O60663 (protein)
chain: MDIATGPESLERCFPRGQTDCAKMLDGIKMEEHALRPGPATLGVLLGSDCPHPAVCEGCQRPISDRFLMRVNESSWHEECLQCAACQQALTTSCYFRDRKLYCKQDYQQLFAAKCSGCMEKIAPTEFVMRALECVYHLGCFCCCVCERQLRKGDEFVLKEGQLLCKGDYEKEKDLLSSVSPDESDSVKSEDEDGDMKPAKGQGSQSKGSGDDGKDPRRPKRPRTILTTQQRRAFKASFEVSSKPCRKVRETLAAETGLSVRVVQVWFQNQRAKMKKLARRHQQQQEQQNSQRLGQEVLSSRMEGMMASYTPLAPPQQQIVAMEQSPYGSSDPFQQGLTPPQMPGDHMNPYGNDSIFHDIDSDTSLTSLSDCFLGSSDVGSLQARVGNPIDRLYSMQSSYFAS
B8: NR1H4, Q96RI1 (protein)
chain: MVMQFQGLENPIQISPHCSCTPSGFFMEMMSMKPAKGVLTEQVAGPLGQNLEVEPYSQYSNVQFPQVQPQISSSSYYSNLGFYPQQPEEWYSPGIYELRRMPAETLYQGETEVAEMPVTKKPRMGASAGRIKGDELCVVCGDRASGYHYNALTCEGCKGFFRRSITKNAVYKCKNGGNCVMDMYMRRKCQECRLRKCKEMGMLAECMYTGLLTEIQCKSKRLRKNVKQHADQTVNEDSEGRDLRQVTSTTKSCREKTELTPDQQTLLHFIMDSYNKQRMPQEITNKILKEEFSAEENFLILTEMATNHVQVLVEFTKKLPGFQTLDHEDQIALLKGSAVEAMFLRSAEIFNKKLPSGHSDLLEERIRNSGISDEYITPMFSFYKSIGELKMTQEEYALLTAIVILSPDRQYIKDREAVEKLQEPLLDVLQKLCKIHQPENPQHFACLLGRLTELRTFNHHHAEMLMSWRVNDHKFTPLLCEIWDVQ
B9: E2F8, A0AVK6 (protein)
chain: MENEKENLFCEPHKRGLMKTPLKESTTANIVLAEIQPDFGPLTTPTKPKEGSQGEPWTPTANLKMLISAVSPEIRNRDQKRGLFDNRSGLPEAKDCIHEHLSGDEFEKSQPSRKEKSLGLLCHKFLARYPNYPNPAVNNDICLDEVAEELNVERRRIYDIVNVLESLHMVSRLAKNRYTWHGRHNLNKTLGTLKSIGEENKYAEQIMMIKKKEYEQEFDFIKSYSIEDHIIKSNTGPNGHPDMCFVELPGVEFRAASVNSRKDKSLRVMSQKFVMLFLVSTPQIVSLEVAAKILIGEDHVEDLDKSKFKTKIRRLYDIANVLSSLDLIKKVHVTEERGRKPAFKWTGPEISPNTSGSSPVIHFTPSDLEVRRSSKENCAKNLFSTRGKPNFTRHPSLIKLVKSIESDRRKINSAPSSPIKTNKAESSQNSAPFPSKMAQLAAICKMQLEEQSSESRQKVKVQLARSGPCKPVAPLDPPVNAEMELTAPSLIQPLGMVPLIPSPLSSAVPLILPQAPSGPSYAIYLQPTQAHQSVTPPQGLSPTVCTTHSSKATGSKDSTDATTEKAANDTSKASASTRPGSLLPAPERQGAKSRTREPAGERGSKRASMLEDSGSKKKFKEDLKGLENVSATLFPSGYLIPLTQCSSLGAESILSGKENSSALSPNHRIYSSPIAGVIPVTSSELTAVNFPSFHVTPLKLMVSPTSVAAVPVGNSPALASSHPVPIQNPSSAIVNFTLQHLGLISPNVQLSASPGSGIVPVSPRIESVNVAPENAGTQQGRATNYDSPVPGQSQPNGQSVAVTGAQQPVPVTPKGSQLVAESFFRTPGGPTKPTSSSCMDFEGANKTSLGTLFVPQRKLEVSTEDVH

target: nucleoprotein N of Crimean-Congo hemorrhagic fever virus; assay: AlphaScreen luminescence signal relative to Venus negative control (fold); higher = stronger binding to CCHFV N
Method: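 AlphaScreen binding of cell-free made, FLAG-GST-tagged human transcription factors and regulators (crude translation products) to biotinylated N protein; signal as fold of the FLAG-GST-Venus control. One pass.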

| Binder | AlphaScreen luminescence signal |
| --- | --- |
| B1 | 2.47 |
| B2 | 50.2 |
| B3 | 2.88 |
| B4 | 4.33 |
| B5 | 4.14 |
| B6 | 8.93 |
| B7 | 3.49 |
| B8 | 2.28 |
| B9 | 2.33 |
